Laboratory results as given in the supplement of paper PMC10126150.
Values marked as one replicate rest on one cluster of the flow cell; about a third of the high ones do not repeat.

Test system: ATP
Assay: switch fluorescence ratio, 500 uM ATP over buffer (Cy3 cluster intensity, sum of 5 cycles each) (fold (ratio)); higher = stronger signal-on switching upon ATP binding; sequences stand for … in TCGTCGGCAGCGTCAGATGTGTATAAGAGACAGTTTTTTTTTTTTTTTTTTTTTTTTT…TC
Settings: aptamer strand: ATP DNA aptamer (quencher-CACCTGGGGGAGTATTGCGGAGGAAGG + anchor), 100 nM annealed; ATP concentration: 500 uM; one replicate
Procedure, shortened: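 Per cluster, summed Cy3 intensity from the target cycles was divided by that from the buffer cycles to give the fluorescence ratio, then averaged per switch-domain sequence. Clusters outside 100-1000 RFU were excluded. The Cy3-labelled switching-strand clusters, on a modified Illumina MiSeq flow-cell, were annealed to 100 nM quencher-labelled ATP aptamer and imaged in selection buffer, then after 15 min with 500 uM ATP at 22 °C, for five cycles with NaOH stripping and re-annealing between them.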
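Further: ATP exposure 15 min at 22 °C before imaging.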

Work on GCCCTAAGTT yielded a switch fluorescence ratio of 0.984.
GAATATTATG gave a switch fluorescence ratio of 1.
In the case of GGAGTAGTAT, the switch fluorescence ratio is reported as 1.05.
In the case of ATTCAAGTAT, the switch fluorescence ratio is reported as 0.998.
For GACGTTTGGC, the switch fluorescence ratio was 0.989.
Sequence AAGATATAAG has a switch fluorescence ratio of 0.995.
In the case of ATGGTTGCGT, the switch fluorescence ratio is reported as 0.967.
For AAAAACTCCG, the switch fluorescence ratio was 1.27.
With TAATTATTTG the switch fluorescence ratio was 0.993.
ATGCCCGATG gave a switch fluorescence ratio of 0.971.
Work on CCTATGTTAT yielded a switch fluorescence ratio of 1.09.
For GTGCGAAAGT, the switch fluorescence ratio was 1.02.
For GTGCACGCTT, the switch fluorescence ratio was 0.984.
ACAAAGTCAT showed a switch fluorescence ratio of 1.
In the case of ATAAGCCGAA, the switch fluorescence ratio is reported as 1.04.
Sequence CCCCTGCGCC has a switch fluorescence ratio of 2.26.
CTTAACTGCG was tested, and the switch fluorescence ratio was 0.987.
In the case of TATGCATGTA, the switch fluorescence ratio is reported as 0.939.
GACGGGTACT was tested, and the switch fluorescence ratio was 1.12.
TGTGTTCAAC gave a switch fluorescence ratio of 1.01.
Sequence GCTAGTACGG has a switch fluorescence ratio of 1.01.
Sequence ACCAACGCAG has a switch fluorescence ratio of 1.37.
With ATTAACATGT the switch fluorescence ratio was 0.956.
In the case of TTTTGAGGCG, the switch fluorescence ratio is reported as 0.995.
Work on GACGCCGCTT yielded a switch fluorescence ratio of 2.1.
In the case of ATCATCCCGG, the switch fluorescence ratio is reported as 1.04.
Work on GACGCGGACT yielded a switch fluorescence ratio of 3.24.
TTACTCACCT gave a switch fluorescence ratio of 1.42.
CGCTAATACA gave a switch fluorescence ratio of 5.43.
GATAATTACA showed a switch fluorescence ratio of 1.03.
In the case of AGATTATCTT, the switch fluorescence ratio is reported as 0.99.
ACCGTTTCTC gave a switch fluorescence ratio of 1.03.
For GAAAGGAATA, the switch fluorescence ratio was 1.06.
For TCAGAACTAG, the switch fluorescence ratio was 0.998.
GCGGAATCGT showed a switch fluorescence ratio of 1.04.
CTGTGAGCTA showed a switch fluorescence ratio of 1.41.
For CCCTTAATGT, the switch fluorescence ratio was 0.992.
Sequence TCTGAGCGTC has a switch fluorescence ratio of 0.982.
With AGATAGCTGG the switch fluorescence ratio was 1.
Sequence TCGGACGGTT has a switch fluorescence ratio of 1.03.
Work on CATGTGGGGC yielded a switch fluorescence ratio of 1.03.
TTACGCACGG gave a switch fluorescence ratio of 1.36.
TGTTCTCAAT was tested, and the switch fluorescence ratio was 1.38.
For AGCCTATATA, the switch fluorescence ratio was 1.
AGCGGTTTGA showed a switch fluorescence ratio of 0.971.
In the case of AAAGAGTGCC, the switch fluorescence ratio is reported as 0.98.
Work on GACAAATATA yielded a switch fluorescence ratio of 1.01.
With GGTCGCTATG the switch fluorescence ratio was 1.02.
In the case of GCAGTTAGAC, the switch fluorescence ratio is reported as 1.38.
CAAGTAAAAT showed a switch fluorescence ratio of 1.02.
For TCCGGGTGTC, the switch fluorescence ratio was 1.4.
GAAACACTC gave a switch fluorescence ratio of 1.37.
ATGGGAAACA showed a switch fluorescence ratio of 1.02.
With ACGTAGGAAC the switch fluorescence ratio was 1.09.
AAATCCTTCC was tested, and the switch fluorescence ratio was 1.72.
Work on GGATGGTAAT yielded a switch fluorescence ratio of 1.02.
TCTTGCATTA gave a switch fluorescence ratio of 0.995.
Sequence TGATGAAAAC has a switch fluorescence ratio of 0.979.
CTATGCTCTT gave a switch fluorescence ratio of 1.
CGCAATTCCG showed a switch fluorescence ratio of 2.25.
In the case of AGAGGTTTTC, the switch fluorescence ratio is reported as 0.992.
For ATCGCTGGT, the switch fluorescence ratio was 0.989.
GTAGCTGGGT was tested, and the switch fluorescence ratio was 1.01.
Work on GACGGTGT yielded a switch fluorescence ratio of 0.973.
With TGCTAGAAAG the switch fluorescence ratio was 0.978.
In the case of TGTCAACAGT, the switch fluorescence ratio is reported as 0.992.
GAAAACGCGC showed a switch fluorescence ratio of 1.
TTATGTTAAT gave a switch fluorescence ratio of 1.03.
TCTTTTACTT gave a switch fluorescence ratio of 0.975.
Work on AAGTCTCCC yielded a switch fluorescence ratio of 1.06.
CGGGCAAGCT gave a switch fluorescence ratio of 1.03.
TTTGTTACTC was tested, and the switch fluorescence ratio was 0.964.
In the case of TACAAGTGCC, the switch fluorescence ratio is reported as 1.04.
Sequence CGAATCAGTG has a switch fluorescence ratio of 0.973.
GAACGATAAG was tested, and the switch fluorescence ratio was 1.01.
CTATTTTAG showed a switch fluorescence ratio of 0.994.
Sequence CTCGGATCCT has a switch fluorescence ratio of 1.
Work on TCTTGAATAC yielded a switch fluorescence ratio of 1.49.
GAAGCGTGGC gave a switch fluorescence ratio of 1.11.
Sequence TACTAGCACT has a switch fluorescence ratio of 1.15.
Work on AGCATTAGAT yielded a switch fluorescence ratio of 1.02.
With TTTCAAGTAG the switch fluorescence ratio was 1.06.
CATCAACCTG showed a switch fluorescence ratio of 0.988.
CTGCTCAATG gave a switch fluorescence ratio of 1.09.
With ACTTATACTT the switch fluorescence ratio was 1.14.
For TATGTCCTG, the switch fluorescence ratio was 0.997.
GAATTCATGG showed a switch fluorescence ratio of 0.957.
For GCTGAAAAGC, the switch fluorescence ratio was 1.03.
Work on ATGATGTTGG yielded a switch fluorescence ratio of 0.983.
GTGCTCGGGG was tested, and the switch fluorescence ratio was 1.05.
With GTAGTCGCAG the switch fluorescence ratio was 0.991.
CCGGACGCTG gave a switch fluorescence ratio of 1.31.
In the case of ATCTCTCAAA, the switch fluorescence ratio is reported as 1.02.
For TATAACACTG, the switch fluorescence ratio was 1.04.
With TCGGGGACAT the switch fluorescence ratio was 1.02.
Sequence TCAACATAGC has a switch fluorescence ratio of 0.996.
Work on TTTTGACACA yielded a switch fluorescence ratio of 0.919.
Sequence CAAGTAGCAA has a switch fluorescence ratio of 1.94.
For CCGGAGGTGA, the switch fluorescence ratio was 1.4.
AAGGTGGCGG showed a switch fluorescence ratio of 0.982.
Work on CGGGTGGTCT yielded a switch fluorescence ratio of 0.957.
ACACTCACGA gave a switch fluorescence ratio of 1.32.
CTTTGTCTAT was tested, and the switch fluorescence ratio was 1.02.
TTACAGGGAA showed a switch fluorescence ratio of 0.949.
GGTATGTTCC gave a switch fluorescence ratio of 1.01.
Work on CCCACGGGT yielded a switch fluorescence ratio of 1.84.
Sequence CGCCCAAATT has a switch fluorescence ratio of 1.06.
Sequence CGGTCTTAAA has a switch fluorescence ratio of 0.968.
For ACTTTATGAG, the switch fluorescence ratio was 1.03.
ATGTCTTC gave a switch fluorescence ratio of 0.994.
For TTTGATGTGA, the switch fluorescence ratio was 1.09.
CGGGGACACG gave a switch fluorescence ratio of 1.03.
TTAGTTCCGC gave a switch fluorescence ratio of 1.13.
AAAAACTAC showed a switch fluorescence ratio of 1.41.
ATACGTAGGG showed a switch fluorescence ratio of 1.06.
In the case of TGCCGGCATG, the switch fluorescence ratio is reported as 0.948.
GGCGAAGGCT showed a switch fluorescence ratio of 1.02.
Work on GGGCGAGCGT yielded a switch fluorescence ratio of 0.978.
For ATAAAATCTT, the switch fluorescence ratio was 0.998.
GCATCGACGT showed a switch fluorescence ratio of 1.02.
ACCCCTGTAC was tested, and the switch fluorescence ratio was 1.52.
In the case of GCTCCTTCTT, the switch fluorescence ratio is reported as 1.05.
Sequence CAGGAAGCCT has a switch fluorescence ratio of 1.12.
GTTCACAATG was tested, and the switch fluorescence ratio was 1.
Work on CTGGGAGCGC yielded a switch fluorescence ratio of 1.16.
Work on TTGAGCATGT yielded a switch fluorescence ratio of 1.03.
Work on GATTGCAGCA yielded a switch fluorescence ratio of 0.966.
In the case of GCATAACTGC, the switch fluorescence ratio is reported as 1.07.
ACGATTGTGC gave a switch fluorescence ratio of 1.02.
Work on CTCATCATGG yielded a switch fluorescence ratio of 0.988.
Work on TATGCGGAGA yielded a switch fluorescence ratio of 1.03.
TAATTGACAT was tested, and the switch fluorescence ratio was 1.03.
TATAAGAGGA showed a switch fluorescence ratio of 0.975.
ACCGAGGACA gave a switch fluorescence ratio of 1.06.
Sequence TCTACCAAG has a switch fluorescence ratio of 1.04.
For CCTTGGATC, the switch fluorescence ratio was 0.994.
GGGTGTCGCA gave a switch fluorescence ratio of 1.
Work on ACCGCAGCGG yielded a switch fluorescence ratio of 1.01.
For TTCACGTTGA, the switch fluorescence ratio was 1.07.
Work on TCATTTAAAT yielded a switch fluorescence ratio of 0.981.
Sequence TATTAGCTGA has a switch fluorescence ratio of 1.05.
Sequence CCGTGTGGTG has a switch fluorescence ratio of 1.1.
In the case of TCAATAGATA, the switch fluorescence ratio is reported as 0.985.
ACGACAAATG was tested, and the switch fluorescence ratio was 1.04.
GTTGCATAAA showed a switch fluorescence ratio of 0.983.
Sequence AGGCGGTCAG has a switch fluorescence ratio of 0.988.
AATTAGTAGA gave a switch fluorescence ratio of 0.991.
In the case of CATAAATATG, the switch fluorescence ratio is reported as 1.
TCCGTTTAGT gave a switch fluorescence ratio of 1.02.
In the case of GTGATTCACG, the switch fluorescence ratio is reported as 0.988.
GGGATCGGCT gave a switch fluorescence ratio of 1.1.
For GAACAGGAGC, the switch fluorescence ratio was 1.04.
Sequence GGGTCTAACA has a switch fluorescence ratio of 0.973.
